Measured values as given in ChEMBL document CHEMBL4888484, “Replenishing the malaria drug discovery pipeline: Screening and hit evaluation of the MMV Hit Generation Library 1 (HGL1) against asexual blood stage Plasmodium falciparum ,using a nano luciferase reporter read-out” (2022).
The campaign covered roughly 150,000 compounds. About 540 (0.36%) showed an effect of 50% or more. The list shows a part of the results.

Tested on: Plasmodium falciparum
Experiment: Primary screen in NF54 nanoGlo assay, in single point, at 2uM, 72h; a lower Z score goes with more inhibition
Format: functional, Erythrocyte
Details: timepoint 72 hour

Row | Compound | % Inhibition [%] | Z score
1 | O=C1CCC2(CCN(Cc3ccc(F)c(Cl)c3F)CC2)CN1C1CC1 | -2 | 0.29
2 | CC(=O)Nc1ccc(Cc2nc3cc(C(=O)N4CCN(c5ccc(Cl)cc5)CC4)ccc3[nH]2)cc1 | -16 | 1.83
3 | CC1CC(C)CN(C(=O)CCN2C(=O)c3ccccc3C2=O)C1 (stereo unspecified) | -10 | 1.43
4 | CC(NC1CCc2c(O)cccc21)c1ccc(N2CCCC2=O)cc1 (stereo unspecified) | -8 | 0.94
5 | CCN(C(=O)Nc1nnc(C)s1)[C@@H](C)c1cc2ccccc2o1 | -2 | 0.22
6 | CCOCCCNC(=O)c1cc2c(=O)[nH]c(-c3ccccc3)cn2n1 | -11 | 1.46
7 | CC(C)(C)c1ccccc1S(=O)(=O)Nc1n[nH]c2ccccc12 | -7 | 1.12
8 | COc1ccc(CCC(=O)N(Cc2cccn2C)C2CC2)cc1 | 0 | -0.08
9 | CC(C)[C@H]1CC[C@H](C(=O)N[C@H](Cc2ccccc2)C(=O)N2CCOCC2)CC1 | -13 | 1.81
10 | CC(C)=CCN1CCC(NC(=O)c2ccc3[nH]cnc3c2)CC1 | 1 | -0.13
11 | COC(=O)c1cc(NC(=O)C2CCCCC2)cn1C | -19 | 3.63
12 | CCOc1ccccc1[C@@H]1CC(=O)NC(NC(=O)c2cccnc2)=N1 | -3 | 0.58
13 | COc1cc(-c2c3c(C)nn(-c4ccccc4)c3nc3[nH]c(=O)[nH]c(=O)c23)cc(OC)c1O | -7 | 0.77
14 | CC(C)Oc1cc(Br)cc(C(=O)N(C)C2(CO)CC2)c1 | 17 | -2.2
15 | Fc1cccc(-c2cncc(CN3CCCCC3)c2)c1F | -3 | 0.27
16 | O=C(CCc1ccccc1)n1nc(NCc2ccccc2Cl)nc1NCc1ccccc1Cl | 8 | -1.04
17 | COc1ccc(CN2CC(c3nc(CCN(C)C(=O)C4CCOCC4)no3)C2)cc1C | -13 | 1.71
18 | COc1ccc(CN(C[C@H](O)COC(C)(C)C)C(C)C)cc1OC | -7 | 0.72
19 | O=C(Cn1cccc(S(=O)(=O)N2CCOCC2)c1=O)Nc1ccc(F)c(Cl)c1 | -10 | 1.22
20 | O=C(Cc1ccc(F)cc1Cl)N1CC2COCC(C1)O2 | -4 | 0.58
21 | CCc1ncc(S(=O)(=O)N2CC[C@H](c3nccn3C)C2)s1 | 2 | -0.27
22 | O=C(Nc1nnc(-c2ccc(Br)o2)o1)C1CCCC1 | -8 | 1.5

Row | Compound | % Inhibition [%] | Z score
23 | Cc1ccc(-c2c[n+]([O-])c3nc(-c4ccc(Br)cc4)cn3n2)cc1 | -4 | 0.44
24 | c1ccc(-c2noc(-c3cc(N4CCCC4)ccn3)n2)nc1 | -22 | 2.93
25 | O=C(NCC1CCCCC1)c1coc(CN2CCN(c3ncccn3)CC2)n1 | -10 | 1.38
26 | O=C(O)[C@H]1CCCN1CCOc1c(Cl)cccc1Cl | -11 | 1.4
27 | Cc1csc(CNC(=O)c2cccs2)n1 | -5 | 0.69
28 | O=C(NCc1ccc(Cl)cc1)c1ccccc1CN1CCOCC1 | -2 | 0.19
29 | COc1cccc2c1N(CC(=O)N(C1CCCC1)C1CCS(=O)(=O)C1)CCC2C (stereo unspecified) | -11 | 1.85
30 | C[C@@H](CNS(=O)(=O)C1CC1)NCc1ccc(C(=O)N(C)C)o1 | -12 | 1.07
31 | CC(=O)N1CCN(C(=O)c2cccs2)[C@H](C(=O)N[C@@H](CC2CCCCC2)C(N)=O)C1 | 26 | -2.91
32 | Cc1cc(NCCS(C)(=O)=O)nc(C2CCC2)n1 | -6 | 1.06
33 | COC[C@H](C)NC(=O)CS(=O)(=O)c1cc(F)ccc1F | 2 | -0.4
34 | Cc1ccc(-n2cc(-c3noc(-c4cccc(N(C)C)c4)n3)nn2)cc1 | -20 | 3.84
35 | O=C(c1ccccc1Oc1ccccc1)N1CCO[C@]2(CNCCOC2)C1 | 5 | -0.96
36 | C[C@@H](Cn1cccn1)NC(=O)c1ccco1 | -3 | 0.39
37 | CCC(NC1CC(=O)N(CC(F)(F)F)C1)C(=O)OC (stereo unspecified) | -13 | 1.16
38 | O=C(N[C@@H](CC1CCOCC1)c1ccccc1)C(F)F | -9 | 1.13
39 | O=C(Cn1ccc(=O)c2sccc21)NC[C@H]1CCCO1 | -5 | 0.53
40 | COc1cc(NC(=O)[C@@H]2Cn3cccc3C(=O)N2)cc(OC)c1 | -12 | 1.84
41 | CCn1cc(C)c(C(=O)O)c1CC(=O)NCc1ccccc1Cl | -8 | 1.05
42 | C#CCC(NC(=O)C(O)c1cc(Cl)cc(Cl)c1)C(N)=O (stereo unspecified) | -10 | 1.22
43 | COCCn1c(N)c(N(Cc2ccccc2)C(=O)CCCc2c[nH]c3ccccc23)c(=O)[nH]c1=O | 9 | -1.47
